Data: the RNAGym collection of RNA variant scans (doi:10.7554/elife.90254)
Read counts are not given, so values of variants with three or more changes are uncertain.

B1: LINE1-mini (parent)
chain: GGCAGAGCUCAACACAGCGUGGCAAAGUGGCUGUGGCUAGACUGCC

Variants of: B1
Assay: self-cleavage, relative activity (ratio to wild type); higher = more cleavage; in vitro, sequencing; the parent is a self-cleaving ribozyme

Variant	self-cleavage
GGCUGAGCUCAACACCGCGUGGCAAAGUGGCUCUGGCUAGACUGCC	0.01
GGCUGAGCUCAUCACAGCGUGGCAAAGUGGCUGAGGCUAGCCUGCC	0.08
GGCUGAGCUUAACACAGCGUGGCAAUGUGGCUGUGCCUAGUCGGAC	0.03
GGCUGAGCUUAACACCGCGUGGCAAAGUGGCUGUGGCUAGACUGCC	0.09
GGCUGAGGUCAACACAGCGUGGUAAAGUGGCUGUGGCUAGACUGCC	0.24
GGCUGAGCUGAACAAAGCGUGGGAAAGUAGCUGUGGCUGGACUGCU	0.01
GGCUGAGGUCAACACAGCGUGGAAAAGUCGCUGUAACUAGACUGCC	0.04
GGCUGAGCUCAAGACAGCGUGGCAAAGAAGCUGUGUCUAAACUGCC	0.38
GGCUGAGCUAAACACAGCGUGGCAAAGUGGCUGGGGCUAGACUGCC	0.02
GGCUGAGCUCAACGCAGCCUGGCAAAUUGGCUGUGGGUAGAUUGCA	0.02
GGCUGAGCUCAACACGGCGAGGCAAAGUGGCUGUGGAUAGACUGCC	0.02
GGCUGAGCUCAACGCAGCGUGGCAAUGUGGCUGUGACUAGACCGCC	0.03
GGCUGAGCUGAAUACAGCGUGGGAAAGUGGCUGUGGGUAGACUGCC	0.03
GGCUGAGUACAACACAGCAUGGCAAAGUGGCUGUGGCUAGACUGCC	0.09
GGCUGAGAUCAACACAGCGUGGCAAAGUGGCUGUGGCUAGUCUGCC	0.09
GGCUGAGCUCAACACAGCGUGGCCAAAUGGCUGUGGCUAAACUUCC	0.04
GGCUGAGCUGAACACAGCGUGGCAAAUUGGCUGUGGCUAGACUGCC	0.04
GGCUGAGCUCAACACAGCGUGGCAAGUGGACUGUGGCUAGACUGCC	0.16
GGCUGAGUUCAUCACAGCGUGGCAAAGUGGCUGUGGCUAGCCUGCC	0.03
GGCUGAGCUCAAGACAGCGUAGCAAAGUGGCUGUGGCUAGACUGCC	0.2
GGCUGAGCUCAACACAGCGUGGCAACGUUGCUGUGGCUAGACUGCC	0.04
GGCUGAGCUCAACACAGCGUGGCAGAGUGGCUGUGGGUAGACUGCC	0.01
GGCUGAGCUAAACACAGCGUGUCAAAGUGGCUGUGGCUAGACUGCC	0.04

Variant	self-cleavage
GGCUGAGAUCAACACAGCGGGGCAAAGUAGCUGUGGCUAGACUGCC	0.22
GGCUGAGCUUGACACAGCGGGGCAAAGUGGCUGUUGCUAGACUGGC	0.01
GGCUGAGCUCAACUCAGCGUGACAACAUGGCUGUGGCUAGACUGCC	0.02
GGCUGAGAUCAGCACAGCGUGGCAAAGUGGCUGUGGCGAGACUACG	0.04
GGCUGAGCUCAAUGCAGCGUGGCAAAGUGGCUGUGCCUAGACUGCC	0.03
GGCUGAGCUGAACACAGAGUGGCGACGUGGCUGUAGCUAGACUGCC	0.02
GGCUGAGCUCAACACAGCGUGGCAGAGUGGCUGUAGCUAGACUGCC	0.01
GGCUGAGCUCAACCCAGCGUGGCAAAGUGGCUGUGGCUUGACUGCC	0.16
GGCUGAGCUCAACACAGCGUGGCAGAGUGGCUGUUACUAGACUGCC	0.12
GGCUGAGCUCAAGACAACGUGGCAAAGUGGCUGUGGCUAGACUGCC	0.01
GGCUGAGCUGAACACAGCGUGGCAAAGUCGCUGUGGCUAGACUGCC	0.01
GGCUGAGCUCAACACUGCUUGGCAUUGUGGCUGUGGCUAGACUGGC	0.06
GGCUGAGCUCAACACAGCGUGGCUAAGUGGCAGUGGCUAGAAUGCC	0.03
GGCUGAGCUCAACACCGCGUGGCUAAGUGGCUGUGGCUAGACUGCC	0.04
GGCUGAGGUUAACACAGCGUGGCAAAGUGGCUGUGGCUAGACUGCC	0.08
GGCUGAGCUCAAGACAGCGUGGAAAAAUAGCUUUAGCUAGACUGCC	0.07
GGCUGAGCUCAACACAGCGUGGCAUAGUGGCUCUGGCUAGACUGUC	0.03
GGCUGAGCUCAUCACAGAGUGGCCAGGUGGCUGUGGCUAGACUGCC	0.02
GGCUGAGCUCAACACAGCGUGGCACAGUGGCUGUUGCUAGACUUCC	0.06
GGCUGAGCUCAACACAGCGUGGCAAGGUGGCUGUGGCUAGACUGCU	0.04
GGCUGAGCUCAACGCAGCGUGACAAAGUGGCUGUGGCUAGGCUGCC	0.01
GGCUGAGCUAAACACAGCGUGGCCAAGUGGGUGUGGCUAGACUGCC	0.02
GGCUGAGCUCAACGCAGCGUGGCAAAGUGGGUGUGGCUAGACUGCC	0.03

Variant	self-cleavage
GGCUGAGCUCAACACCGCGUGGCAAAGUGUCUGUGGCUAGACUGCC	0.1
GGCUGAGCUUAACACAGCGUGGCAAAGUGGCUGUGGCUAAACUGCC	0.03
GGCUGAGCUCAAGACAGCGUGGCAAAGUGGCUGUCGCUAGACUGCC	0.06
GGCUGAGCUCAAAACAUCGUGGCAAAGUGGCUGUGUCAAGACUGCC	0.05
GGCUGAGUUCAAGACAGCGUGGCAAAGUGGCUGUGGCUAGACUUCC	0.98
GGCUGAGCUCAACACUGCGGGGCAAAGUGGCUCUGGCUAGACUGCC	0.02
GGCUGAGCUCAACGCAGCUUGGCAAAGUGGCUGUGGCUAGACUGCC	0.02
GGCUGAGCUAAAUACAGCGUGGCAAAGUGGCUGUGGCUAGACUGCC	0.1
GGCUGAGGUCAACACGAAGUGGAAAAGUGGCUGUGGACAGUCUGCC	0.12
GGCUGAGCUCAACACCGCGUGGCAAAGUGGAUUUGGCCAGACUGCC	0.03
GGCUGAGCUGAACACAGCGUGGCAAAGUUCCUGUGGCUAGACUGCC	0.01
GGCUGAGCUCAACACAGCGUGGCAAGGUGGCUGUUGCUAAACUGCC	0.01
GGCUGAGCUGAACACAGCGCGGCAAAGUGGCUGUGGCUAGACUGCC	0.03
GGCUGAGCUCAACACUGCGUGGCAAAGUGGCUGCGUAUAGACUGCC	0
GGCUGAGAUCAACACAGCGUUGCAAAGUGGCUGUGGCUAGACUGCC	0.8
GGCUGAGCUUAACACAGCGUGGCAAAGUGGCCGUGGCUAGACUGCC	0.07
GGCUGAGCUAGACACAGCGUGGCAAAGUGGCUGUGUCUAGAAUGCC	0
GGCUGAGCUCAACACAGCGUGGCAAUCUGGCUGUGGCUAGACUGCC	0.01
GGCUGAGUUCAACACACCGCGGCAAAGCGGUUGUGGGUAGUCUGCC	0.16
GGCUGAGCUCAACACGGUGUGGAACAGUGGCUGUGGCUACACUGCC	0
GGCUGAGGUCAACACAGCGUUUCAAAGUGGCUGUGGCUAGUCUGCC	0.34
GGCUGAGCUCAACACAGCGUGGCACAGUGGCUUUGGCCAGACUGCC	0.03
GGCUGAGCUCAACACAGCGUGGCUAUGUGGCUGUGGCUAGACUGCC	0.58

Variant	self-cleavage
GGCUGAGCUCAACACAGCGUGGCUCAGUGGCUGUGACUAGACUGCC	0.04
GGCUGAGGUCAACACAGCGUGGCUAAGUGGCUGUGUCUAGACUUCC	0.02
GGCUGAGCUCAACCCAGCGUGGCACAGUGGCUGUGGCUAGACUGCC	0.06
GGCUGAGCUCAACACAGCGUGGCGAAGUGGGUGUCGCUAGACUGCC	0.1
GGCUGAGCUCAACACAGCGUGGCACAGUGGCUGUGGCUAGACCGCC	0.03
GGCUGAGCUCAACACAGCGUGGCAGAGUGGCUUUUGCUAGACUGCC	0.04
GGCUGAGCUCAACACGGCGUGGCAAAGUGUCUAUGGCUAGACUGCC	0.01
GGCUGAGCUCAACUCACCGUGGCAAAGUGGCUGUGGCUUGACUGCC	0.06
GGCUGAGCUCAACGCAGCGUGGCAAAGUGGCUGUGGCUAGAGUGCC	0.02
GGCUGAGGUCAACACCGCAUGGCAAAGUGGCUGUGGCUAGACUGCC	0.02
GGCUGAGCUCAACACCGCGUGGCAAAGUGGCAGUGGCUAGACUGCC	0.28
GGCUGAGCUCAAAAUAGUGUGGCAAAGUGGCUGUGGCUAGACUUCC	0.04
GGCUGAGCUCAAAUCAGCGUGGCAAAGUGGCUGUUGCUAGACUGCC	0.27
GGCUGAGCUCAACACAGCGUGGCUAACUGGCUUUGGCUAGACUACC	0.06
GGCUGAGCUCAACACGGCGUGGCAAAGUGGCUAUGGCAAGACUGCC	0.01
GGCUGAGGGCAACACAGCGUGGCAAAGUGGCUGUGGCUAGACUGCC	0.05
GGCUGAGCUCAAAUCAGCGUGGCAAAGUGCCUGUGGCUAGACUGCC	0.12
GGCUGAGUUCAACACAGCGUGGCAAAAUGGCUGUGGCUAGACUGCC	0.04
GGCUGAGAACAACACAGCGUGGCAAAGUUGCUGUGUCUAGACUGCC	0.32
GGCUGAGAUCAAAACAGCGUGGGAAAGUGGCUGUGGCUUGACUGCC	0.17
GGCUGAGCUCAAGACAGCGUGGCAAAGUGGCUGUGGUUAGACUGCC	0.04
GGCUGAGUUCAACACAUCGUGGCAAAGUGGCUGUGGCUAGACUGCC	0.05
GGCUGAGAUCAACACAGCGUGGCAAUGUGGCUGUGUCUAGACUGCC	0.04

Variant	self-cleavage
GGCUGAGCUCAAAACAGCGUGGCAAAGUGACUGUGGCUAGCCUGCC	0.06
GGCUGAGCUCAACACAGCGUGGCAGAGUGGCUGAGGCUAGACUGCC	0.2
GGCUGAGCUCAAAGCAACGUGGCAAAGUGGCUGUGGCUAGACUGCC	0.14
GGCUGAGCUCAACACAGCGUGGCAACGUGGCUGUGUGUAGACUGCC	0.02
GGCUGAGCUCAACACAGCGUGGCAAUGUGGCUGUGGCUAGACCGCC	0.05
GGCUGAGAUCAACACAGCGUGGCAAAGUUGCUGUGGAUAGACUGCC	0.82
GGCUGAGCUCAUCACAGCCUGGCAAAGUGGCUGUGGCUAGAUUGCC	0.02
GGCUGAGCUCAACGCAGGGUGGCAAAGUUGCUGUGGCCAGACUGCC	0.09
GGCUGAGCUCAACACGGCGUGGCAAAGUAGCUGUGGCUAGACUGCC	0.1
GGCUGAGAUCAACACAGCGUGGCGACGUGGUUGUGGCUAGACUGCA	0.01
GGCUGAGCUCAAAAGAGCGUGGCAAAGUGGCUGUAACUAGACUGCC	0.08
GGCUGAGCUCAACACUGCGUGGCAGAGUGCCUGUGGCAAGACUGCC	0.05
GGCUGAGCUCAACACAGCGUGGCCAAGUGGCUGUUGCUAGACUGCC	0.01
GGCUGAGCUCAACACAGCGUGGCAAAGUGGCUGUGGCUUGACUCCC	0.07
GGCUGAGCUAGACACAGCGUGGCAAAGUGGCUGUGGCUUGACUGCC	0.01
GGCUGAGCUAAACACAGCGAGGCAAAGUCGCUGUGGCUAGACUGCC	0.02
GGCUGAGCUCAAGCCAGAGUGGCAAAGUGGCUGUGGCUAGACUGCC	0.04
GGCUGAGCUCAACCCAGCGUGACAAAGUGGCUGUGGCUAGACUGCA	0.05
GGCUGAGCUCAACGUAGCGUGGCAAAGUGGCUGUGGCUAGACUGCC	0.4
GGCUGAGCUCAAGACAGCGUGGCAAAGUGGCUGUGGCUAGAGUGCC	0.02
